# The supplement of paper PMC12355420
# Structures can show the parent of a compound that is named as a salt. The list shows a part of the results. No stated cut-off is given here; in the data, active = 0.5 or less and inactive = the rest. Single values are uncertain, as repeats are few or missing.
# Test system: HeLa VPS33A reporter cells;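 further: primary screen of an FDA-approved drug library in HeLa reporter cells in 96-well format, CellMask signal normalized to DMSO-treated wells set as 1, under 0.5 deemed highly cytotoxic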
# Assay: relative cell viability (CellMask signal) vs DMSO (fraction of DMSO); higher = less cytotoxic
# Settings: 50 µM; 24 h
row,SMILES,relative cell viability
1,O=C(O)c1ccc(C(=O)O)cc1 [Terephthalic acid],1.11
2,CNC[C@@H](O)c1ccc(O)c(O)c1 [L-Adrenaline],0.762
3,CCOC(=O)O[C@]1(C(=O)OCCl)CC[C@H]2[C@@H]3CCC4=CC(=O)C=C[C@]4(C)[C@H]3[C@@H](O)C[C@@]21C [Loteprednol etabonate],0.945
4,CC(C)CC(N)=O [Isovaleramide],0.923
5,CC(=O)NS(=O)(=O)c1ccc(N)cc1 [Sulfacetamide Sodium],1.23
6,C[C@]12C=CC(=O)C=C1CC[C@@H]1[C@@H]2C(=O)C[C@@]2(C)[C@H]1CC[C@]2(O)C(=O)CO [Prednisone],1.05
7,CN[C@@H]1[C@@H](O[C@H]2O[C@H](CO)[C@@H](N)[C@H](O)[C@H]2O)OC2C[C@@H](N)[C@@H](O[C@H]3[C@H](O)[C@@H](O)[C@H](N)C[C@@H]3N)OC2[C@@H]1O (some centres not stated) [Apramycin Sulfate],1.05
8,COc1ccccc1OCC(O)COC(N)=O (configuration not stated) [Methyocarbamol],1.12
9,Nc1ccn([C@@H]2O[C@H](CO)[C@@H](O)C2(F)F)c(=O)n1 [Gemcitabine],1.19
10,CC(=O)O[C@]1(C(C)=O)CC[C@H]2[C@@H]3C[C@H](C)C4=CC(=O)CC[C@]4(C)[C@H]3CC[C@@]21C [Medroxyprogesterone acetate],1.23
11,C[C@]12CC[C@@H]3c4ccc(O)cc4CC[C@H]3[C@@H]1CC[C@@H]2O [α-Estradiol],1.23
12,Cc1cc(C2CCCCC2)n(O)c(=O)c1 [Ciclopirox ethanolamine],1.03

# Test system: HeLa VPS33A R498W KI + HA-SDC1-FLAG;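 further: HA-SDC1 level read out by In-Cell Western staining with an anti-HA antibody against the N-terminal tag, screening FDA-approved library drugs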
# Assay: relative GAG core protein HA-SDC1 amount per cell number vs DMSO (fraction of DMSO); HeLa model of a glycosaminoglycan (GAG) storage disease; KI is knock-in and KO knock-out; SDC1 is syndecan 1; higher = more SDC1 (GAG core protein)
# Settings: 50 µM; 24 h
row,SMILES,relative GAG core protein HA-SDC1 amount per cell number
1,Cc1cc(-n2c(=O)[nH]c(=O)n(C)c2=O)ccc1Oc1ccc(SC(F)(F)F)cc1 [Toltrazuril],inactive: 0.664
2,C[C@H]1[C@H](C)CC[C@]2(C(=O)O[C@@H]3O[C@H](CO[C@@H]4O[C@H](CO)[C@@H](O[C@@H]5O[C@H](C)[C@H](O)[C@@H](O)[C@H]5O)[C@H](O)[C@H]4O)[C@@H](O)[C@H](O)[C@H]3O)CC[C@]3(C)C(=CC[C@@H]4[C@@]5(C)C[C@@H](O)[C@H](O)[C@@](C)(CO)[C@@H]5CC[C@]43C)[C@H]12 [Asiaticoside],inactive: 0.938
3,"Nc1ccccc1NC(=O)c1ccc(CNc2nccc(-c3cccnc3)n2)cc1 [Mocetinostat (MGCD0103, MG0103)]",inactive: 0.578
4,COC(=O)Nc1nc2cc([S+]([O-])c3ccccc3)ccc2[nH]1 (configuration not stated) [Oxfendazole],active: 0.313
5,"CCCC(=O)Nc1ncnc2c1ncn2[C@@H]1O[C@@H]2COP(=O)(O)O[C@H]2[C@H]1OC(=O)CCC [Dibutyryl-cAMP, sodium salt]",inactive: 0.792
6,OCc1ccccc1O[C@@H]1O[C@H](CO)[C@@H](O)[C@H](O)[C@H]1O [D-(-)-Salicin],inactive: 0.961
7,"Cc1c(C(=O)Nc2ccc(N3C[C@@H](C)O[C@@H](C)C3)nc2)cccc1-c1ccc(OC(F)(F)F)cc1 [LDE225 (NVP-LDE225,Erismodegib)]",inactive: 0.755
8,Cn1cnc2c(F)c(Nc3ccc(Br)cc3F)c(C(=O)NOCCO)cc21,inactive: 0.872
9,NC(=O)Cc1cccc(C(=O)c2ccccc2)c1N [Nepafenac],inactive: 1.14
10,NCC[C@H](O)C(=O)N[C@@H]1C[C@H](N)[C@@H](O[C@H]2O[C@H](CN)[C@@H](O)[C@H](O)[C@H]2O)[C@H](O)[C@H]1O[C@H]1O[C@H](CO)[C@@H](O)[C@H](N)[C@H]1O [Amikacin disulfate],inactive: 1.54
11,NC(=O)N[C@@H](CCC(=O)O)C(=O)O [N-Carbamyl-L-glutamic acid],inactive: 0.907
12,CCOCc1nc2c(N)nc3ccccc3c2n1CC(C)(C)O [Resiquimod (R-848)],inactive: 1.06
13,Cc1nnc(C(C)C)n1C1C[C@H]2CC[C@@H](C1)N2CC[C@H](NC(=O)C1CCC(F)(F)CC1)c1ccccc1 (stereo in doubt) [Maraviroc],inactive: 1.04
14,Cc1[nH]c(=O)c(C#N)cc1-c1ccc2nccn2c1 [Olprinone Hydrochloride],inactive: 1.49
15,C[C@H](CCC(=O)O)[C@H]1CC[C@H]2[C@@H]3C[C@H](O)[C@@H]4C[C@H](O)CC[C@]4(C)[C@H]3CC[C@]12C [Hyodeoxycholic acid],inactive: 0.751
